Measurements published in article PMC6643034 (2019).

Assays:
Assay in all cases: BLI
[1] = target: P1156_IXORI
[2] = target: P1096_IXORI (Ixodes ricinus, UniProt A0A0K8RKE4 24-114)
[3] = target: P1174_IXORI (Ixodes ricinus, UniProt V5I3C5 28-104)
[4] = target: P1095_IXORI (Ixodes ricinus, UniProt A0A0K8RCE3 24-112)
[5] = target: P1162_IXORI (Ixodes ricinus, UniProt A0A0K8RDJ1 29-99)
[6] = target: P1166_IXORI (Ixodes ricinus, UniProt A0A0K8RE99 25-110)
[7] = target: P1132_IXORI (Ixodes ricinus, UniProt V5GZ08 29-106)
[8] = target: P1229_IXORI (Ixodes ricinus, UniProt A0A0K8R4R9 32-108)
[9] = target: P1127_IXORI (Ixodes ricinus, UniProt A0A0K8RJ67 29-108)
[10] = target: P1168_IXORI (Ixodes ricinus, UniProt A0A0K8RCU3 25-106)
[11] = target: P1128_IXORI (Ixodes ricinus, UniProt A0A0K8R6B3 19-90)

B1: CXCL8 (ligand)
chain: not shown
[1]
  Kd: 2.9 nM
[2]
  Kd: 44.7 nM
[3]
  Kd: 81.7 nM
[4]
  Kd: 110 nM
[5]
  Kd: 12.2 nM
[6]
  Kd: 129 nM
[7]
  Kd: 32.8 nM
[8]
  Kd: 30.7 nM
[9]
  Kd: 13.3 nM
[10]
  Kd: 20.7 nM
[11]
  Kd: 2.3 nM
